Reference: PubChem BioAssay AID1345083 (National Center for Advancing Translational Sciences (NCATS), 2018)
Hit rate of the full screen: of about 94,000 compounds, about 6,200 (6.6%) were called active. The shares of active, inactive and inconclusive entries below differ from those in the screen. Calls come from the whole dose curve; as a rule, active = well fitted inhibition curve with a large enough effect; inconclusive = small, poorly fitted or top-dose-only effect; inactive = flat fitted curve, though single readings scatter. A potency beside an inconclusive call is a rough fit, not a confirmed value.

Test: Cytotoxic Profiling in HEK 293 Cell Line of Diverse Libraries Using Quantitative High-Throughput Screening; note: nearly all actives have a fitted effect of over 60% in size
Settings: HEK 293 viability, ATP luminescence (CellTiter-Glo), 48-72 h; series mostly up to 115 µM; activity change, negative = cytotoxicity: at the top concentration
Method in brief: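 Viability of HEK 293 cells, plated at 250 cells/well, was judged by cellular ATP after compound treatment for 48 or 72 hr. Luminescence was imaged 10 min after CellTiter-Glo addition at room temperature.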
% is set by controls: 0 for no effect and ±100 for the full control effect; potency is the fitted concentration of half-maximal effect; tags give direction and shape of the fitted curve.

SMILES | Potency | activity change, negative = cytotoxicity | outcome
Cc1ccc(C(=O)N2[C@H]3CC[C@@H]2c2cnc(-c4ccccc4)nc2C3)c(C)c1 | inconclusive: 50.1 µM [inhibitor, partial curve, poor fit] | – | –
Cc1nc(-c2ccc(C(F)(F)F)cc2)cc([C@H]2CN3CC[C@H]2C[C@@H]3CNC(=O)c2ccco2)n1 | active: 20 µM | – | –
O=c1ccc(-c2cccs2)c2n1C[C@H]1C[C@@H]2CN(S(=O)(=O)c2ccccc2)C1 | – | inactive: -0.688% [at 172 µM] | –
CS(=O)(=O)N1C[C@H]2CCN(Cc3ccc[nH]3)C[C@H]21 | inconclusive: 89.1 µM [inhibitor, single point] | – | –
O=[S+]1([O-])NCC2(CCN(Cc3cccnc3)C2)Oc2ncccc21 (configuration not stated) | – | – | inactive
Cc1nc(-c2ccc(N(C)C)cc2)cc([C@H]2CN3CC[C@H]2C[C@@H]3COC(=O)NC(C)C)n1 | inconclusive: 50.1 µM [inhibitor, partial curve, poor fit] | – | –
COc1ccc(S(=O)(=O)NC[C@H]2C[C@@H]3CCN2C[C@@H]3CN(C)c2ccccc2)cc1 | inconclusive: 44.7 µM [inhibitor, full curve, poor fit] | – | –
COc1ccccc1-n1cc(C2=CCN(CCOCCO)CC2)cn1 | inconclusive: 89.1 µM [inhibitor, single point] | – | –
Cc1ccc(-c2ccccc2CN2CCN(C(=O)Cc3ccccn3)CC2)cc1Cl | inconclusive: 50.1 µM [inhibitor, partial curve, poor fit] | – | –
Cc1ccc(C(=O)N2CCC3(CC2)c2nccn2-c2ccccc2CN3C)c(C)c1 | – | inactive: -24.1% | –
Cc1nc(-c2cccs2)cc([C@H]2CN3CC[C@H]2C[C@@H]3CNC(=O)c2ccc3c(c2)OCO3)n1 | inconclusive: 50.1 µM [inhibitor, partial curve, poor fit] | – | –
COc1cc2c(cc1OCC1CC1)NC(=O)C21CCN(c2ncc(F)cn2)CC1 | inconclusive: 112 µM [inhibitor, partial curve] | – | –
CC(C)NC(=O)OC[C@H]1C[C@@H]2CCN1C[C@@H]2c1cc(C2CCCC2)nc(-c2ccncc2)n1 | active: 22.4 µM | – | –
COCc1cn(C[C@H]2C[C@@H]3CCN2C[C@@H]3C(=O)N2CCOCC2)nn1 | – | inactive: 2.53% [at 172 µM] | –
O=C(CC1CCCC1)N1[C@H]2CC[C@@H]1c1cnc(-c3ccc(F)cc3)nc1C2 | inconclusive: 7.08 µM [inhibitor, full curve, poor fit] | – | –
CCC(CC)c1cc([C@H]2CN3CC[C@H]2C[C@@H]3CNC(=O)CSCC(=O)O)nc(-c2ccncc2)n1 | inconclusive: 89.1 µM [inhibitor, single point] | – | –
Cc1ccccc1S(=O)(=O)N1[C@H]2CC[C@@H]1c1cnc(-c3ccc(F)cc3)nc1C2 | active: 28.2 µM | – | –
